Reference: PubChem BioAssay AID1345082 (National Center for Advancing Translational Sciences (NCATS), 2018)
About 4,000 (4.3%) of roughly 94,000 compounds were called active. The inconclusive results got no clear call from the source; some entries with a clear call stand among them for comparison. The call rests on the fitted dose curve; in most records, active means well fitted inhibition curve with a large enough effect; inconclusive means small, poorly fitted or top-dose-only effect; inactive means no such curve, though single readings can be large or run the other way. A potency beside an inconclusive call is a rough fit, not a confirmed value.

test: Cytotoxic Profiling in NIH 3T3 Cell Line of Diverse Libraries Using Quantitative High-Throughput Screening; conditions: NIH 3T3 viability, CellTiter-Glo ATP luminescence, 48-72 h; series mostly up to 96.7 µM; further: nearly all actives have a fitted effect of over 55% in size
Procedure, shortened: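 First NIH 3T3 cells are plated at 400 cells/well; next compound is pinned in; then plates incubate 48 or 72 hr at 37 °C; finally CellTiter-Glo is added and luminescence read after 10 min.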
Potency means the concentration at half of the fitted maximal effect; tags describe the fitted curve by direction and shape.

Row | SMILES | Potency
1 | CN1CCC(OC2CCN(C(=O)c3cnn(C)c3)CC2)CC1 | inactive
2 | CCCN1CCN(C(=O)c2ccc(-c3ccc(N4CCCCC4)nc3)cc2)CC1 | inconclusive: 39.8 µM [inhibitor, partial curve, poor fit]
3 | Cc1ccc(NC(=O)COc2cccc(-c3nnc4n3CCCC4)c2)cc1 | inactive
4 | N#Cc1ccc(C(=O)N2CCC3(CC2)CN(c2ccncn2)CC3CO)cc1 (stereo unspecified) | inactive
5 | O=C(Cc1cccn1-c1cccc(Cl)c1)NCc1ccc(N2CCOCC2)cc1 | inconclusive: 50.1 µM [inhibitor, partial curve, poor fit]
6 | O=[S+]([O-])(Nc1ccccc1)c1ccc2c(c1)OCCN(Cc1ccncc1F)C2 | inconclusive: 56.2 µM [inhibitor, partial curve, poor fit]
7 | CS(=O)(=O)N(C[C@H]1O[C@H](Cc2cc(-c3ccccc3)on2)CC[C@@H]1O)S(C)(=O)=O | inconclusive: 89.1 µM [inhibitor, single point]
8 | COc1cccc(Nc2cc(C(=O)NCc3cccnc3)c3c(c2)ncn3C)c1 | inconclusive: 56.2 µM [inhibitor, partial curve, poor fit]
9 | COc1ccc(-c2ccccc2NC(=O)C2CCCN(Cc3ccn[nH]3)C2)cc1 (stereo unspecified) | inactive
10 | CNC(=O)c1cc(C2CC2)nc2onc(C3CCCN(C(=O)c4ccc(F)cc4)C3)c12 (stereo unspecified) | inconclusive: 56.2 µM [inhibitor, partial curve, poor fit]
11 | C=CCNC(=O)N[C@H]1CCN2C(=O)c3cc(-c4cccc(C)c4C)ccc3NC(=O)[C@@H]2C1 | inconclusive: 112 µM [inhibitor, partial curve, poor fit]
12 | O=C(NCc1cccc(F)c1)[C@@H]1CCCN1c1nccc(Nc2ccccc2Cl)n1 | inconclusive: 44.7 µM [inhibitor, partial curve, poor fit]
13 | CC(C)C(=O)N1[C@@H]2CC[C@H]1CC(NC(=O)c1ccc(F)cc1)C2 (stereo partly specified) | inactive
14 | COc1cccc(CCN2CC[C@H]3CN(C(=O)Nc4ccc(F)cc4)CC[C@H]3CC2=O)c1OC | inconclusive: 89.1 µM [inhibitor, single point]
15 | Cc1ccc(-c2cccc(CN3CCCC3C(=O)NC3CCCC3)c2)cc1Cl (stereo unspecified) | inconclusive: 50.1 µM [inhibitor, partial curve, poor fit]
16 | Cc1ccc(NC(=O)Cn2ccn3nc(-c4ccccc4)c(CO)c3c2=O)cc1C | inconclusive: 44.7 µM [inhibitor, partial curve, poor fit]
17 | COc1cccc(CN2Cc3nc(-c4c(C)noc4C)ccc3OCC2=O)c1 | active: 39.8 µM
18 | CCN(C)S(=O)(=O)NCC1CCN(c2cnn(C)c(=O)c2)C1 (stereo unspecified) | inactive
19 | Cn1ncc2c(C(=O)Nc3cccc(F)c3)cc(-c3ccccc3C(F)(F)F)nc21 | inconclusive: 44.7 µM [inhibitor, partial curve, poor fit]
20 | O=C(NCc1ccc(C(F)(F)F)cc1)c1ccc2nnc(-c3ccc(C(F)(F)F)cc3)n2c1 | active: 31.6 µM
21 | CCn1ccc(C(=O)N2CCC(Cc3nncn3CC3CC3)CC2)n1 | inconclusive: 70.8 µM [inhibitor, partial curve, poor fit]
22 | O=C(Nc1ccccc1)N1CCN(C(=O)c2nc3cccnc3n(C3CCCC3)c2=O)CC1 | inconclusive: 39.8 µM [inhibitor, partial curve, poor fit]

Row | SMILES | Potency
23 | COc1cccc(CNC(=O)c2cc(-c3cccs3)c3cccn3n2)c1 | inconclusive: 50.1 µM [inhibitor, partial curve, poor fit]
24 | COC(=O)c1ccc2c(c1)nc1n2[C@@H](CNCc2ccc(C(F)(F)F)cc2)COC1 | inconclusive: 35.5 µM [inhibitor, partial curve]
25 | CN1CCC2(C1)CN(CC1CC1)c1ccc(C(=O)NC3CCC3)cc12 (stereo unspecified) | inconclusive: 100 µM [inhibitor, partial curve, poor fit]
26 | CN(C)S(=O)(=O)N1CCCOCCNC(=O)[C@@H]2CCC[C@@H]21 | inactive
27 | O=S(=O)(c1ccccc1)N1CCC(OC2CCN(Cc3cccnc3)CC2)CC1 | inconclusive: 39.8 µM [inhibitor, partial curve, poor fit]
28 | COc1ccccc1C(=O)N1CCCN(C)c2ccccc21 | inconclusive: 70.8 µM [inhibitor, partial curve, poor fit]
29 | Cn1ncc(N2CCCC(CC(=O)NCc3ccccn3)C2)cc1=O (stereo unspecified) | inconclusive: 70.8 µM [inhibitor, single point]
30 | CCNC(=O)NCC1c2cc(OC)c(OC)cc2CCN1C(=O)Nc1ccccc1OC (stereo unspecified) | inactive
31 | Oc1cc(-c2csc3ccccc23)cc2c1OCCNC2 | inconclusive: 56.2 µM [inhibitor, partial curve, poor fit]
32 | C#CCNC(=O)c1ccc2nc(-c3cccnc3)oc2c1 | inactive
33 | COCCCNc1ccc2nnc(-c3ccc(F)cn3)n2n1 | inconclusive: 100 µM [inhibitor, partial curve, poor fit]
34 | O=C(O)C1CCc2nnc(C3CCCN([S+](=O)([O-])c4cccc(C(F)(F)F)c4)C3)n21 (stereo unspecified) | inactive
35 | Cn1c(Cn2cccn2)nnc1C1CC(NC(=O)CCN2CCCO2)C1 (stereo unspecified) | inactive
36 | CC1(C)C(=O)N(Cc2ccccc2)[C@H]2CN(Cc3ccc(C(=O)O)cc3)C[C@H]2[S+]1(=O)[O-] | inconclusive: 70.8 µM [inhibitor, partial curve, poor fit]
37 | C[S+](=O)([O-])N1CCN(c2nccc(Nc3ccccc3F)n2)CC1 | inactive
38 | CCN1c2cc(C(=O)Nc3cccc(C)c3)ccc2C(=O)N2CCCCC21 (stereo unspecified) | active: 35.5 µM
39 | O=C(COc1ccccc1)N1C[C@@H]2C[C@H](C1)c1ccc(-c3cccc(C(F)(F)F)c3)c(=O)n1C2 | inconclusive: 89.1 µM [inhibitor, single point]
40 | CCCc1nc(C)cc(N2CCC(NCCc3ccc(Cl)cc3)CC2)n1 | inconclusive: 20 µM [inhibitor, full curve, poor fit]
41 | CC1=C[C@@H](CN2CCC(C(N)=O)CC2)[C@H](C(C)C)C[C@H]1Cc1nnc(-c2ccc(C)cc2)o1 | active: 31.6 µM
42 | O=C(c1ccc(F)cc1)N1Cc2[nH]cnc2C[C@H]1c1nc(-c2ccc3c(c2)OCO3)no1 | inconclusive: 89.1 µM [inhibitor, partial curve]
43 | CCc1cc(=O)n(CC(=O)Nc2ccc(F)c(Cl)c2)c(N2CCOCC2)n1 | inactive
44 | CCCCCC(=O)N1c2cccc3c2[C@@H](C[C@H]1C(N)=O)CN(Cc1ccc(OC)cc1)C3=O | inconclusive: 12.6 µM [inhibitor, partial curve, poor fit]

Row | SMILES | Potency
45 | CN(C)c1ccc(CN(C)C2CCOc3ccccc32)cc1 (stereo unspecified) | inconclusive: 112 µM [inhibitor, partial curve, poor fit]
46 | CCCn1cc(-c2ccncc2)cc1C(=O)NCc1ccccc1 | inconclusive: 70.8 µM [inhibitor, single point]
47 | COCc1cc(=O)n(CC(=O)N2CCN(c3ccc(F)cc3)CC2)c(N2CCOCC2)n1 | inactive
48 | O=C(NCCc1ccc(Cl)cc1)c1ccc2nnc(C3CCCC3)n2c1 | active: 35.5 µM
49 | CCOC(=O)C(Cc1cccc(N2CCN(C(=O)c3c(Cl)cccc3Cl)CC2)c1F)OC (stereo unspecified) | inconclusive: 50.1 µM [inhibitor, partial curve, poor fit]
50 | CCC(O)c1cc2n(n1)CCN(Cc1nccn1Cc1ccccc1)C2 (stereo unspecified) | inactive
51 | CN(C)c1cc(CC2CC(=O)N(c3ccccc3)C2)ncn1 (stereo unspecified) | inactive
52 | O=C1CC(c2ccccc2)N(Cc2ccncc2)CCCN(C(=O)COc2ccc(F)cc2)CCN1 (stereo unspecified) | inactive
53 | Cc1nc(CN2C(=O)OC3(CCN(Cc4ccccc4F)CC3)C2(C)c2ccccc2)cs1 (stereo unspecified) | inactive
54 | O=C(NCCc1ccncc1)c1ccc(-c2nnc3ccc(NC(=O)C4CCC4)cn23)cc1 | inactive
55 | O=C(NCCc1ccccn1)c1ccnc(-c2nnc3ccc(Nc4ccccc4)nn23)c1 | inconclusive: 56.2 µM [inhibitor, partial curve, poor fit]
56 | CN(C(=O)c1cnc2n[nH]c(-c3ccccc3)c2n1)c1ccccc1 | inconclusive: 44.7 µM [inhibitor, partial curve, poor fit]
57 | COc1cccc(CN2CCC3(CC2)OC(=O)N(Cc2ccccc2)C3(C)c2ccccc2)c1 (stereo unspecified) | inconclusive: 10 µM [inhibitor, full curve, poor fit]
58 | Cc1ccc(-c2cccc(C=O)c2)cc1Cl | inconclusive: 126 µM [inhibitor, single point]
59 | Cn1c(CNC(=O)CC2CCN(S(C)(=O)=O)C2)nc2ccccc21 (stereo unspecified) | inconclusive: 5.62 µM [inhibitor, full curve, poor fit]
60 | CCN1C(=O)N(Cc2cccc(OC)c2)C(=O)C12CCN(Cc1nc3ccccc3n1C)CC2 | inconclusive: 63.1 µM [inhibitor, partial curve, poor fit]
61 | CN(CC1CCOC1)S(=O)(=O)c1ccccc1Cl (stereo unspecified) | inactive
62 | COc1ccc2cc(C3CN(Cc4nc(C(N)=O)no4)CCO3)ccc2c1 (stereo unspecified) | inactive
63 | COC1C(=O)N(c2cccc(F)c2)C12CCN(C(=O)c1cccnc1)CC2 (stereo unspecified) | inactive
64 | Cc1ccc(NC(=O)N2CCC(OC3CCN(S(C)(=O)=O)CC3)CC2)cc1C | inactive
65 | CN1CCC(NC[C@H]2O[C@H](Cc3cc(-c4ccccc4)on3)CC[C@@H]2O)CC1 | inconclusive: 126 µM [inhibitor, single point]
66 | C=CCOc1c(OC)ccc2c1CN(CC1CC1)C(=O)CCN2C[C@@H](O)COCc1ccccc1 | inconclusive: 70.8 µM [inhibitor, single point]
